From PubChem BioAssay AID1508623 (National Center for Advancing Translational Sciences (NCATS), 2021)
Hit rate of the full screen: of about 48,000 compounds, about 450 (0.94%) were called active. About 19% were inconclusive and are not listed. Calls come from the whole dose curve; as a rule, active = well fitted inhibition curve with a large enough effect; inconclusive = small, poorly fitted or top-dose-only effect; inactive = no such curve, though single readings can be large or run the other way. The list shows a part of the results.

assay: Primary qHTS for Identification of Small Molecule Inhibitors of Huntingtin Promoter Activity; conditions: HEK293 HTT promoter firefly luciferase reporter (activity 0% = vehicle and -100% = no light), 24 h; series mostly up to 57.5 µM; activity change, negative = inhibition: at the top concentration; note: nearly all actives have a fitted effect of over 50% in size
Outline: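 Firefly luciferase readout (Dual-Glo, 10 min RT) after 24 h, 37 °C compound exposure (final up to 57.5 uM) of HEK293 reporter cells cultured 24 h beforehand; PTC124 at 50 uM final as control inhibitor; activity scaled vehicle 0%, zero RLU -100%.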

Activity change, negative = inhibition, inactive:
COc1ccc(NC(=O)c2ccc3c(c2)CCN3S(=O)(=O)c2ccccc2)cc1 -27.4%
CCOc1ccccc1CN1CCc2nc(Nc3ccccc3)ncc2C1 -17.3%
COc1cc(CN2CCN(S(=O)(=O)c3ccc(F)cc3)CC2)cc(OC)c1OC -20.6%
COC(=O)c1cc(OC)c(OC)cc1NC(=O)c1ccc2c(c1)CCN2S(=O)(=O)c1ccccc1 -3.74%
Fc1ccc(-n2ncc3c(N4CCN(Cc5ccccc5)CC4)ncnc32)cc1 5.86%
CCc1ccc(CNC(=O)c2ccc3c(c2)nc2n3CCCCC2)cc1 62.4%
COc1ccc(OC)c(CCNC(=O)CN2C(=O)COc3ccc(S(=O)(=O)N4CCCCCC4)cc32)c1 -18.5%
Cc1ccc(C)c(Cn2cnc3ccccc3c2=O)c1 -7.94%
COc1cccc(CNC(=O)CSc2n[nH]c(-c3ccccc3Cl)n2)c1 -7.24%
COc1cccc(CNC(=O)CCNS(=O)(=O)c2ccc3c(c2)CCCC(=O)N3)c1 -11.9%
CC1=C(C(=O)Nc2ccccc2)C(c2cccs2)n2nc(SCc3ccccc3)nc2N1 (stereo unspecified) -4.45%
O=C(CSc1ccc2nnc(CCNS(=O)(=O)c3ccccc3)n2n1)Nc1ccccc1C(F)(F)F -14.3%
CCc1cccc(NC(=O)CN2c3ccccc3S(=O)(=O)c3ccccc32)c1 -23.8%
Cc1ccc(CNC(=O)Cn2ccn(-c3cc(C)cc(C)c3)c(=O)c2=O)cc1 -20.9%
COc1ccccc1NC(=O)Cn1nc(C)n2cccc2c1=O 2.33%
O=C(c1ccc(F)cc1)n1nc(-c2ccc(Cl)cc2)nc1NCc1ccco1 23.6%
CCOc1ccc(-c2cc(NC(=O)Nc3ccccc3C(F)(F)F)c(C(=O)OC)s2)cc1 49.4%
Cc1ccc(N2CC(C(=O)NCc3nnnn3-c3ccc(C)c(C)c3)CC2=O)cc1 (stereo unspecified) 7.15%
CCCCN(CC)Cc1ccc(CNS(=O)(=O)c2cc3c(cc2Cl)NC(=O)CO3)o1 -6.23%
O=c1cc(N2CCOCC2)oc2c(-c3ccccc3)cccc12 13%
CCOc1ccc(NC(=O)Cn2c(=O)n(Cc3ccc(C(=O)NCc4ccc5c(c4)OCO5)cc3)c(=O)c3ccccc32)cc1 -12%
CCOc1ccc(NC(=O)Cn2c(=O)cc(C)c3c(C)nn(-c4ccc(CC)cc4)c32)cc1 5.63%
COc1ccc(C(=O)Nc2ccccc2C(=O)OCc2cc(=O)n3nc(C4CC4)sc3n2)cc1 -1.56%
CCOC(=O)N1CCc2c(sc3c2c(=O)n(-c2ccc(CC)cc2)c(=O)n3Cc2cc(C)ccc2C)C1 -6.89%
CCOC(=O)c1c(C)oc2nc(C)nc(Nc3cc(C)ccc3OC)c12 15.4%
CCOc1ccccc1NC(=O)C1CCCN(S(=O)(=O)c2cn(C)cn2)C1 (stereo unspecified) -17.6%
